Measured values from the supplement of paper PMC8728848.
This is one part of the list.

How the values were obtained:
Assay in all cases: glycan array binding signal (z-score within array); higher = stronger binding
Details in all cases: glycan notation: IUPAC condensed, linker removed
[1] = biological target: Fuc(a1-2)Gal(b1-4)[Fuc(a1-3)]GlcNAc
In short: (§1)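 Glycan array binding is given as a within-array Z-score, which can be read as non-binding when negative. The arrays, 3228 of them, came from the Consortium for Functional Glycomics database and were retained only where the protein sequence was available. Z-scores were averaged across arrays of the same protein sequence at different concentrations or buffers and across linkers.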

[2] = biological target: Fuc(a1-2)Gal(b1-4)[Fuc(a1-3)]GlcNAc(b1-2)Man(a1-3)[Fuc(a1-2)Gal(b1-4)[Fuc(a1-3)]GlcNAc(b1-2)Man(a1-6)]Man(b1-4)GlcNAc(b1-4)[Fuc(a1-6)]GlcNAc
In short: as §1

[3] = biological target: Fuc(a1-2)Gal(b1-4)[Fuc(a1-3)]GlcNAc(b1-2)[Fuc(a1-2)Gal(b1-4)[Fuc(a1-3)]GlcNAc(b1-4)]Man(a1-3)[Fuc(a1-2)Gal(b1-4)[Fuc(a1-3)]GlcNAc(b1-2)Man(a1-6)]Man(b1-4)GlcNAc(b1-4)GlcNAc
In short: as §1

[4] = biological target: Fuc(a1-2)Gal(b1-4)[Fuc(a1-3)]GlcNAc(b1-3)Gal(b1-4)[Fuc(a1-3)]GlcNAc
In short: as §1

[5] = biological target: Fuc(a1-2)Gal(b1-4)[Fuc(a1-3)]GlcNAc(b1-3)Gal(b1-4)[Fuc(a1-3)]GlcNAc(b1-3)Gal(b1-4)[Fuc(a1-3)]GlcNAc
In short: as §1

[6] = biological target: Fuc(a1-2)Gal(b1-4)[Fuc(a1-3)]GlcNAc(b1-3)GalNAc
In short: as §1

[7] = biological target: Fuc(a1-2)Gal(b1-4)[Fuc(a1-3)]GlcNAc(b1-3)[Neu5Ac(a2-6)Gal(b1-4)GlcNAc(b1-6)]Gal(b1-4)Glc
In short: as §1

[8] = biological target: Fuc(a1-2)Gal3S(b1-4)GlcNAc
In short: as §1

[9] = biological target: Fuc(a1-2)Gal6S(b1-3)GlcNAc
In short: as §1

[10] = biological target: Fuc(a1-2)Gal6S(b1-3)GlcNAc6S
In short: as §1

[11] = biological target: Fuc(a1-2)Gal6S(b1-4)Glc
In short: as §1

[12] = biological target: Fuc(a1-2)Gal6S(b1-4)Glc6S
In short: as §1

[13] = biological target: Fuc(a1-2)[Gal(a1-3)]Gal
In short: as §1

[14] = biological target: Fuc(a1-2)[Gal(a1-3)]Gal(b1-3)GalNAc
In short: as §1

[15] = biological target: Fuc(a1-2)[Gal(a1-3)]Gal(b1-3)GalNAc(b1-3)Gal(a1-4)Gal(b1-4)Glc
In short: as §1

[16] = biological target: Fuc(a1-2)[Gal(a1-3)]Gal(b1-3)GlcNAc
In short: as §1

[17] = biological target: Fuc(a1-2)[Gal(a1-3)]Gal(b1-3)GlcNAc(b1-2)Man(a1-3)[Fuc(a1-2)[Gal(a1-3)]Gal(b1-3)GlcNAc(b1-2)Man(a1-6)]Man(b1-4)GlcNAc(b1-4)GlcNAc
In short: as §1

[18] = biological target: Fuc(a1-2)[Gal(a1-3)]Gal(b1-3)GlcNAc(b1-2)Man(a1-3)[Fuc(a1-2)[Gal(a1-3)]Gal(b1-3)GlcNAc(b1-2)Man(a1-6)]Man(b1-4)GlcNAc(b1-4)[Fuc(a1-6)]GlcNAc
In short: as §1

[19] = biological target: Fuc(a1-2)[Gal(a1-3)]Gal(b1-3)GlcNAc(b1-3)GalNAc
In short: as §1

[20] = biological target: Fuc(a1-2)[Gal(a1-3)]Gal(b1-3)GlcNAc(b1-6)GalNAc
In short: as §1

[21] = biological target: Fuc(a1-2)[Gal(a1-3)]Gal(b1-4)Glc
In short: as §1

[22] = biological target: Fuc(a1-2)[Gal(a1-3)]Gal(b1-4)GlcNAc
In short: as §1

[23] = biological target: Fuc(a1-2)[Gal(a1-3)]Gal(b1-4)GlcNAc(b1-2)Man
In short: as §1

[24] = biological target: Fuc(a1-2)[Gal(a1-3)]Gal(b1-4)GlcNAc(b1-2)Man(a1-3)[Fuc(a1-2)[Gal(a1-3)]Gal(b1-4)GlcNAc(b1-2)Man(a1-6)]Man(b1-4)GlcNAc(b1-4)GlcNAc
In short: as §1

[25] = biological target: Fuc(a1-2)[Gal(a1-3)]Gal(b1-4)GlcNAc(b1-2)Man(a1-3)[Fuc(a1-2)[Gal(a1-3)]Gal(b1-4)GlcNAc(b1-2)Man(a1-6)]Man(b1-4)GlcNAc(b1-4)[Fuc(a1-6)]GlcNAc
In short: as §1

[26] = biological target: Fuc(a1-2)[Gal(a1-3)]Gal(b1-4)GlcNAc(b1-3)GalNAc
In short: as §1

[27] = biological target: Fuc(a1-2)[Gal(a1-3)]Gal(b1-4)GlcNAc(b1-3)[Fuc(a1-2)[Gal(a1-3)]Gal(b1-4)GlcNAc(b1-6)]GalNAc
In short: as §1

[28] = biological target: Fuc(a1-2)[Gal(a1-3)]Gal(b1-4)GlcNAc(b1-6)GalNAc
In short: as §1

[29] = biological target: Fuc(a1-2)[Gal(a1-3)]Gal(b1-4)[Fuc(a1-3)]Glc
In short: as §1

[30] = biological target: Fuc(a1-2)[Gal(a1-3)]Gal(b1-4)[Fuc(a1-3)]GlcNAc
In short: as §1

[31] = biological target: Fuc(a1-2)[Gal(a1-3)]Gal(b1-4)[Fuc(a1-3)]GlcNAc(b1-3)GalNAc
In short: as §1

[32] = biological target: Fuc(a1-2)[Gal(a1-4)]Gal(b1-4)GlcNAc
In short: as §1

[33] = biological target: Fuc(a1-2)[GalNAc(a1-3)]Gal
In short: as §1

[34] = biological target: Fuc(a1-2)[GalNAc(a1-3)]Gal(b1-3)GalNAc(a1-3)[Fuc(a1-2)]Gal(b1-4)GlcNAc
In short: as §1

[35] = biological target: Fuc(a1-2)[GalNAc(a1-3)]Gal(b1-3)GalNAc(b1-3)Gal(a1-4)Gal(b1-4)Glc
In short: as §1

[36] = biological target: Fuc(a1-2)[GalNAc(a1-3)]Gal(b1-3)GlcNAc
In short: as §1

[37] = biological target: Fuc(a1-2)[GalNAc(a1-3)]Gal(b1-3)GlcNAc(b1-2)Man(a1-3)[Fuc(a1-2)[GalNAc(a1-3)]Gal(b1-3)GlcNAc(b1-2)Man(a1-6)]Man(b1-4)GlcNAc(b1-4)GlcNAc
In short: as §1

[38] = biological target: Fuc(a1-2)[GalNAc(a1-3)]Gal(b1-3)GlcNAc(b1-2)Man(a1-3)[Fuc(a1-2)[GalNAc(a1-3)]Gal(b1-3)GlcNAc(b1-2)Man(a1-6)]Man(b1-4)GlcNAc(b1-4)[Fuc(a1-6)]GlcNAc
In short: as §1

B1: Epa1to9 (Candida glabrata) (protein)
chain: MGSSHHHHHHSSGLVPRGSHMTSSNDISLASKDPTTFPLGCSPDITTPKKGLSMELYSYDFRKKGSYPCWDAAYLDPNYPRTGYKSHRLLAKVDGVTGNINFYYHATKGCTPQLGHLPASYNYPKPLTMTNFTMLLYGYFRPKVTGFHTFTISADDLLFVNFGAGNAFDCCRRDSSADHFGNYQAYAIWGSKTAKDELTVHLDAGVYYPIRLFYNNRDYHGALSFTFKTESNENTVSDFSEYFFSLDDTEEGCPGLISYD
glycan array binding signal (z-score) [1]: -0.384
glycan array binding signal (z-score) [2]: -0.274
glycan array binding signal (z-score) [3]: -0.269
glycan array binding signal (z-score) [4]: -0.349
glycan array binding signal (z-score) [5]: -0.36
glycan array binding signal (z-score) [6]: -0.269
glycan array binding signal (z-score) [7]: -0.231
glycan array binding signal (z-score) [8]: 1.08
glycan array binding signal (z-score) [9]: 0.035
glycan array binding signal (z-score) [10]: -0.224
glycan array binding signal (z-score) [11]: -0.208
glycan array binding signal (z-score) [12]: -0.066
glycan array binding signal (z-score) [13]: 0.426
glycan array binding signal (z-score) [14]: -0.126
glycan array binding signal (z-score) [15]: -0.324
glycan array binding signal (z-score) [16]: -0.152
glycan array binding signal (z-score) [17]: -0.266
glycan array binding signal (z-score) [18]: -0.304
glycan array binding signal (z-score) [19]: -0.268
glycan array binding signal (z-score) [20]: -0.284
glycan array binding signal (z-score) [21]: -0.136
glycan array binding signal (z-score) [22]: 0.221
glycan array binding signal (z-score) [23]: -0.048
glycan array binding signal (z-score) [24]: -0.278
glycan array binding signal (z-score) [25]: -0.264
glycan array binding signal (z-score) [26]: -0.194
glycan array binding signal (z-score) [27]: -0.159
glycan array binding signal (z-score) [28]: -0.328
glycan array binding signal (z-score) [29]: -0.269
glycan array binding signal (z-score) [30]: -0.276
glycan array binding signal (z-score) [31]: -0.309
glycan array binding signal (z-score) [32]: 1.18
glycan array binding signal (z-score) [33]: -0.349
glycan array binding signal (z-score) [34]: -0.324
glycan array binding signal (z-score) [35]: -0.349
glycan array binding signal (z-score) [36]: -0.346
glycan array binding signal (z-score) [37]: -0.345
glycan array binding signal (z-score) [38]: -0.354
